Laboratory results: the GPR68 mutational scans of Howard et al. (2025)
Scores with a large standard error are left out. Two further conditions of the source, in which the scores hardly spread, are not listed. Names with del lack the residues named; names with ins carry added residues between the positions named. For some assays here: The concentration of ogerin is not given here.

B1: GPR68, Q15743 (parent)
chain: MGNITADNSSMSCTIDHTIHQTLAPVVYVTVLVVGFPANCLSLYFGYLQIKARNELGVYLCNLTVADLFYICSLPFWLQYVLQHDNWSHGDLSCQVCGILLYENIYISVGFLCCISVDRYLAVAHPFRFHQFRTLKAAVGVSVVIWAKELLTSIYFLMHEEVIEDENQHRVCFEHYPIQAWQRAINYYRFLVGFLFPICLLLASYQGILRAVRRSHGTQKSRKDQIQRLVLSTVVIFLACFLPYHVLLLVRSVWEASCDFAKGVFNAYHFSLLLTSFNCVADPVLYCFVSETTHRDLARLRGACLAFLTCSRTGRAREAYPLGAPEASGKSGAQGEEPELLTKLHPAFQTPNSPGSGGFPTGRLA

Assays:
[1] = variants of: B1; test: cAMP reporter score (Enrich2 score, wild type = 0); higher = more signal; HEK293T, FACS bins
[2] = variants of: B1; test: surface expression score (Enrich2 score, wild type = 0); higher = more signal; HEK293T, FACS bins

Row | Variant | cAMP reporter score ([1]; pH 5.5) | cAMP reporter score ([1]; pH 6) | cAMP reporter score ([1]; pH 6, modulator: ogerin) | cAMP reporter score ([1]; pH 6.5, modulator: ogerin) | surface expression score [2]
1 | MGNITADNSSMSCTIDHTIHQTLAPVVYVTVLVVGFPANCLSLYFGYLQIKARNELGVYLCNLTVADLFYICSLPFWLQYVLQHDNWSHGDLSCQVCGILLYENIYISVGFLCCISVDRYLAVAHPFRFHQFRTLKAAVGVSVVIWAKELLTSIYFLMHEEVIEDENQHRVCFEHYPIQAWQRAINYYRFLVGFLFPICLLLASYQGILRAVRRSHGTQKSRKDQIQRLELSTVVIFLACFLPYHVLLLVRSVWEASCDFAKGVFNAYHFSLLLTSFNCVADPVLYCFVSETTHRDLARLRGACLAFLTCSRTGRAREAYPLGAPEASGKSGAQGEEPELLTKLHPAFQTPNSPGSGGFPTGRLA [V230E] | -1.04 | -0.64 | -1.51 | -1.4 | -0.718
2 | MGNITADNSSMSCTIDHTIHQTLAPVVYVTVLVVGFPANCLSLYFGYLQIKARNELGVYLCNLTVADLFYICSLPFWLQYVLQHDNWSHGDLSCQVCGILLYENIYISVGFLCCISVDRYLAVAHPFRFHQFRTLKAAVGVSVVIWAKELLTSIYFLMHEEVIEDENQHRVCFEHYPIQAWQRAINYYRFLVGFLFPICLLLASYQGILRAVRRSHGTQKSRKDQIQRLFLSTVVIFLACFLPYHVLLLVRSVWEASCDFAKGVFNAYHFSLLLTSFNCVADPVLYCFVSETTHRDLARLRGACLAFLTCSRTGRAREAYPLGAPEASGKSGAQGEEPELLTKLHPAFQTPNSPGSGGFPTGRLA [V230F] | -0.875 | -0.111 | – | -0.184 | -2.63
3 | MGNITADNSSMSCTIDHTIHQTLAPVVYVTVLVVGFPANCLSLYFGYLQIKARNELGVYLCNLTVADLFYICSLPFWLQYVLQHDNWSHGDLSCQVCGILLYENIYISVGFLCCISVDRYLAVAHPFRFHQFRTLKAAVGVSVVIWAKELLTSIYFLMHEEVIEDENQHRVCFEHYPIQAWQRAINYYRFLVGFLFPICLLLASYQGILRAVRRSHGTQKSRKDQIQRLGLSTVVIFLACFLPYHVLLLVRSVWEASCDFAKGVFNAYHFSLLLTSFNCVADPVLYCFVSETTHRDLARLRGACLAFLTCSRTGRAREAYPLGAPEASGKSGAQGEEPELLTKLHPAFQTPNSPGSGGFPTGRLA [V230G] | 0.583 | 0.804 | – | -0.433 | –
4 | MGNITADNSSMSCTIDHTIHQTLAPVVYVTVLVVGFPANCLSLYFGYLQIKARNELGVYLCNLTVADLFYICSLPFWLQYVLQHDNWSHGDLSCQVCGILLYENIYISVGFLCCISVDRYLAVAHPFRFHQFRTLKAAVGVSVVIWAKELLTSIYFLMHEEVIEDENQHRVCFEHYPIQAWQRAINYYRFLVGFLFPICLLLASYQGILRAVRRSHGTQKSRKDQIQRLKLSTVVIFLACFLPYHVLLLVRSVWEASCDFAKGVFNAYHFSLLLTSFNCVADPVLYCFVSETTHRDLARLRGACLAFLTCSRTGRAREAYPLGAPEASGKSGAQGEEPELLTKLHPAFQTPNSPGSGGFPTGRLA [V230K] | -1.68 | -1.04 | -1.87 | -0.843 | -2.18
